Laboratory results as given in patent publication US20220389066A1, “POLYPEPTIDES” (Affibody AB, priority 2019, published 2022).

T1: HMGB1(disulfide) (Rattus norvegicus, UniProt P63159)
T1 construct: purchased HMGBiotech Srl, Milano, Italy
T1 sequence (P63159 1-215): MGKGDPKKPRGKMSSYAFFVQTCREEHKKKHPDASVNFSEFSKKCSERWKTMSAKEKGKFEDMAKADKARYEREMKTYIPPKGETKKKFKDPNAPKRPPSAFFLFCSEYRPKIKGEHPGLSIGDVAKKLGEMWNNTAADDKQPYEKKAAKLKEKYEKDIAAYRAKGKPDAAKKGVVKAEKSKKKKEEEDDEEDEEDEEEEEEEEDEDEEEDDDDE

T2: HMGB1(red) (Rattus norvegicus, UniProt P63159)
T2 construct: purchased HMGBiotech Srl, Milano, Italy
T2 sequence (P63159 1-215): T1 sequence (P63159 1-215)

B1: ZAZ4015: heterodimer ZH01/ZH31, format Z(boxA)-ABD-L3-Z(boxB) (protein)
chain: VDAKYAKEDWDAFWEIIWLPNLTDAQQRAFIYKLEDDPSQSSELLSEAKKLNDSQAPKASGSLAEAKEAANAELDSYGVSDFYKRLIDKAKTVEGVEALKDAILAALPGTGGGGSVDAKYAKEAWLAEQEIWQLPNLTEAQFQAFILKLIDDPSQSSELLSEAKKLNDSQAPK
modifications: Engineered HMGB1 binding polypeptide
B2: ZAZ4057: homodimeric A-box binding polypeptide of ZH27 in fusion with ABD, linker L3 (protein)
chain: AEAKYAKEDWDAFWEIIWLPNLTDAQQRAFIYKLEDDPSQSSELLSEAKKLNDSQAPKASGSLAEAKEAANAELDSYGVSDFYKRLIDKAKTVEGVEALKDAILAALPGTGGGGSAEAKYAKEDWDAFWEIIWLPNLTDAQQRAFIYKLEDDPSQSSELLSEAKKLNDSQAPK
modifications: Engineered HMGB1 binding polypeptide
B3: ZZA4013: heterodimer ZH01/ZH31, format Z(boxB)-L2-Z(boxA)-ABD (protein)
chain: VDAKYAKEAWLAEQEIWQLPNLTEAQFQAFILKLIDDPSQSSELLSEAKKLNDSQAPKGAPGGGGSTSVDAKYAKEDWDAFWEIIWLPNLTDAQQRAFIYKLEDDPSQSSELLSEAKKLNDSQAPKASGSLAEAKEAANAELDSYGVSDFYKRLIDKAKTVEGVEALKDAILAALP
modifications: Engineered HMGB1 binding polypeptide
notes: heterodimer ZH01/ZH31, format Z(boxB)-L2-Z(boxA)-ABD
B4: ZZA4054: homodimer of ZH27, format Z(boxA)-L2-Z(boxA)-ABD (protein)
chain: AEAKYAKEDWDAFWEIIWLPNLTDAQQRAFIYKLEDDPSQSSELLSEAKKLNDSQAPKGAPGGGGSTSAEAKYAKEDWDAFWEIIWLPNLTDAQQRAFIYKLEDDPSQSSELLSEAKKLNDSQAPKASGSLAEAKEAANAELDSYGVSDFYKRLIDKAKTVEGVEALKDAILAALP
modifications: Engineered HMGB1 binding polypeptide
notes: homodimer of ZH27, format Z(boxA)-L2-Z(boxA)-ABD
B5: ZZA4011: heterodimer ZH01/ZH31, format Z(boxA)-L2-Z(boxB)-ABD (protein)
chain: VDAKYAKEDWDAFWEIIWLPNLTDAQQRAFIYKLEDDPSQSSELLSEAKKLNDSQAPKGAPGGGGSTSVDAKYAKEAWLAEQEIWQLPNLTEAQFQAFILKLIDDPSQSSELLSEAKKLNDSQAPKASGSLAEAKEAANAELDSYGVSDFYKRLIDKAKTVEGVEALKDAILAALP
modifications: Engineered HMGB1 binding polypeptide
notes: heterodimer ZH01/ZH31, format Z(boxA)-L2-Z(boxB)-ABD
B6: ZZA4261: heterodimer ZH27/ZH32, format Z(boxA)-L2-Z(boxB)-ABD (protein)
chain: B5 chain with V1A, D2E, V69A, D70E
modifications: Engineered HMGB1 binding polypeptide
notes: heterodimer ZH27/ZH32, format Z(boxA)-L2-Z(boxB)-ABD
B7: ZZA4012: heterodimer ZH01/ZH31, format Z(boxB)-L1-Z(boxA)-ABD (protein)
chain: VDAKYAKEAWLAEQEIWQLPNLTEAQFQAFILKLIDDPSQSSELLSEAKKLNDSQAPKGAPGGGGSGGGGSGGGGSTSVDAKYAKEDWDAFWEIIWLPNLTDAQQRAFIYKLEDDPSQSSELLSEAKKLNDSQAPKASGSLAEAKEAANAELDSYGVSDFYKRLIDKAKTVEGVEALKDAILAALP
modifications: Engineered HMGB1 binding polypeptide
notes: heterodimer ZH01/ZH31, format Z(boxB)-L1-Z(boxA)-ABD
B8: ZZA4262: heterodimer ZH27/ZH32, format Z(boxB)-L1-Z(boxA)-ABD (protein)
chain: B7 chain with V1A, D2E, V79A, D80E
modifications: Engineered HMGB1 binding polypeptide
notes: heterodimer ZH27/ZH32, format Z(boxB)-L1-Z(boxA)-ABD
B9: ZA3975: B-box binding Z-ABD polypeptide, ZH 32-ASGS-PP013 (protein)
chain: AEAKYAKEAWLAEQEIWQLPNLTEAQFQAFILKLIDDPSQSSELLSEAKKLNDSQAPKASGSLAEAKEAANAELDSYGVSDFYKRLIDKAKTVEGVEALKDAILAALP
modifications: Engineered HMGB1 binding polypeptide

Biological target: T1, HMGB1(disulfide)
Assay: Attana A200 biosensor binding analysis, HMGB1(disulfide)
Conditions: relevant kd (the most represented in %); non-reducing; captured on HSA; 1:1 or 1:2 model
Description: (§1) Binding analysis: The Attana A200® biosensor was used to characterize interactions between the dimeric polypeptides (SEQ ID NO:38-48) and HMGB1(red) under reducing conditions and/or HMGB1(disulfide) under non-reducing conditions. The monomeric ZA3812 (SEQ ID NO:35) was included for comparison. The experiment was performed as a capture assay, in which HSA was immobilized on Attana's sensor chip Low-NonSpecific-Binding (LNB). Immobilization was performed using amine coupling. The instrument has two sensor surfaces and HSA was immobilized on both surfaces. Around 110 Hz of HSA was stably immobilized on the surfaces.
(§2) In the kinetic experiment, HBS-EP+/−2 mM DTT was used as running buffer and the flow rate was 25 μl/min at 22° C. In each cycle, one polypeptide was tested against one concentration of HMGB1. […] The analyte HMGB1(reduced) was diluted in HBS-EP+2 mM DTT within a concentration range of 1.33 to 21.4 μg/ml, and the analyte HMGB1(disulfide) was diluted in HBS-EP buffer within a concentration range of 0.62 to 10 μg/ml. Both analytes were subsequently injected for 84 s over both channel A and B, where channel B was used as a blank surface for curve subtraction. Buffer injections were also made for surface subtractions. After dissociation, the surfaces were regenerated with a 30 s injection of 100 mM HCl followed by a 30 s injection of 20 mM NaOH. Data was collected by Attester Software and subsequently processed in the Evaluation Software. To calculate the kinetic parameters (ka and kd) and affinity constant (KD), the experimental data were fitted using a 1:1 or a 1:2 binding model.

kd HMGB1 (disulfide) [s⁻¹] | Molecule
0.0013 | B1
0.00065 | B2
0.00066 | B3
0.00063 | B4
0.0011 | B5
0.0014 | B6
0.00045 | B7
0.00098 | B8

Biological target: T2, HMGB1(red)
Assay: Biacore kinetic analysis, Z-ABD captured on HSA, HMGB1(red)
Format: binding
Conditions: analyte HMGB1(red); reducing conditions (DTT); 1:1 model
Description: Biacore kinetic and specificity analysis: Kinetic constants (ka and kd) and affinities (KD) for HMGB1(red), HMGB1(disulfide), boxA(disulfide) and GST-boxA(red) were determined for the A-box binding Z-ABD polypeptides ZA3812 (SEQ ID NO:35) and ZA3914 (SEQ ID NO:36) (see Example 2), as well as for the HMGB1(red) interaction with the B-box binding polypeptide ZA3975, using a Biacore 2000 instrument (GE Healthcare).
The experiment was performed as a capture assay, in which human serum albumin (HSA, Novozymes, cat. no. 230-005) was immobilized on the carboxylated dextran layer of one CM5 chip surface (GE Healthcare, cat. no. BR100012) to immobilization levels of approximately 3000 RU. The immobilization was performed using amine coupling chemistry according to the manufacturer's protocol and using HBS-EP (GE Healthcare, cat. no. BR100188) as running buffer. In a first set of experiments, Z-ABD polypeptides were analyzed under non-reducing conditions. One flow cell surface was activated and deactivated for use as blank during ligand and analyte injections. In the kinetic experiment, HBS-EP was used as running buffer and the flow rate was 30 μl/min. The ligand, i.e. the Z-ABD polypeptide, was diluted in HBS-EP buffer to a concentration of 30 nM and injected during 2 min.
In a second set of experiments, ZA3812 and ZA3914 were analyzed under reducing conditions where 2 mM DTT was included in the sample and running buffer. Analyses were performed as described above, except that HMGB1(red) and GST-boxA(red) were used as targets.
In a third experiment, ZA3975 was analyzed for binding to HMGB1(red) under reduced conditions (1.5 mM DTT included in the sample and running buffer). The ligand ZA3975 was diluted in HBS-EP buffer to a concentration of 100 nM and injected during 4 min. The analyte, HMGB1(red), was diluted in HBS-EP buffer to a concentration within the range of 8.3 to 675 nM and injected during 4 min, followed by dissociation in running buffer for 20 min. After dissociation, the surfaces were regenerated with three injections of 10 mM HCl.
Kinetic constants were calculated from sensorgrams using the BiaEvaluation software 4.1 (GE Healthcare). The Langmuir 1:1 model was used for fitting of all data except for HMGB1(disulfide), where a model for heterogeneous ligand parallel reactions better represented the experimental data and bulk was set to zero. Double referencing was applied to all data prior to kinetic fit, i.e. responses obtained from a blank surface and from a blank cycle where buffer was injected instead of analyte were subtracted.

ka1 [M⁻¹ s⁻¹] | kd1 [s⁻¹] | Molecule
2.5e+06 | 0.00028 | B9

Biological target: T2, HMGB1(red)
Assay: Attana A200 biosensor binding analysis, HMGB1(red)
Conditions: relevant kd (the most represented in %); 2 mM DTT; captured on HSA; 1:1 or 1:2 model
Description: as §1, §2

kd HMGB1 (red) [s⁻¹] | Molecule
0.0004 | B1
0.0096 | B2
0.00042 | B3
0.013 | B4
0.00049 | B5
0.00046 | B7

Changes are numbered by the printed parent chain.
